For assay [1], the target named is T1, human CTLA-4 expressed on cell surface (hCTLA4-overexpressing CHO-K1 cells) (human, UniProt P16410 36-223).
T1 construct: The construct expressed in the cells is not described further; also called huCTLA-4+ CHO-K cells; CTLA-4+ CHO-K1 cells
T1 sequence: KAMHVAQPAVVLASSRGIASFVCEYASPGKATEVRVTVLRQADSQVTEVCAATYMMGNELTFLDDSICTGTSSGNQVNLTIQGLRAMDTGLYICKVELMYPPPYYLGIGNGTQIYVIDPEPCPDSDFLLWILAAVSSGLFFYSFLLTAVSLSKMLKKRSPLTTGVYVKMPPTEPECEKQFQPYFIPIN
Nature of the assay: flow cytometry (bFACS) on CHO-K1 cells overexpressing human CTLA4; Nanobody detected via ALB11-binding mAb ABH0074; MedianFI (PE). An excerpt: Binding of F023700918 (filled squares), F023700925 (filled triangles), F023700912 (filled circles) and an irrelavant Nb (diamonds) to hCTLA4-overexpressing CHO-K1 cells was studied by flow cytometry. Nanobodies were detected via the ALB11-binding mAB ABH0074. The flow cytometry data generated in this experiment are in FIG. 8.
A general note: In flow cytometry, cells or beads pass a laser one at a time.

Assay [2] has as its target T2, Human serum albumin (human, UniProt P02768).
T2 construct: also called HSA; human albumin
Briefly: SPR, Biacore T100. (In general: In SPR one partner is held on a chip, and binding of the other changes the refractive index at the surface.)

For assay [3], the target named is T3, Rhesus monkey serum albumin (rhesus monkey, UniProt Q28522 17-600).
T3 construct: also called Rhesus serum albumin; rhesus monkey albumin
Briefly: SPR, Biacore T100.

Assay [4] concerns the target T4, Mouse serum albumin (mouse, UniProt P07724 25-608).
T4 construct: also called Mouse plasma albumin; mouse albumin
Briefly: SPR, Biacore T100.

Assay [5] addresses T5, human LAG3 on CHO-K1 cells (huLag-3+ CHO-K1 cells) (human, UniProt P18627 23-525).
T5 construct: whole, on cells
T5 sequence (looked up): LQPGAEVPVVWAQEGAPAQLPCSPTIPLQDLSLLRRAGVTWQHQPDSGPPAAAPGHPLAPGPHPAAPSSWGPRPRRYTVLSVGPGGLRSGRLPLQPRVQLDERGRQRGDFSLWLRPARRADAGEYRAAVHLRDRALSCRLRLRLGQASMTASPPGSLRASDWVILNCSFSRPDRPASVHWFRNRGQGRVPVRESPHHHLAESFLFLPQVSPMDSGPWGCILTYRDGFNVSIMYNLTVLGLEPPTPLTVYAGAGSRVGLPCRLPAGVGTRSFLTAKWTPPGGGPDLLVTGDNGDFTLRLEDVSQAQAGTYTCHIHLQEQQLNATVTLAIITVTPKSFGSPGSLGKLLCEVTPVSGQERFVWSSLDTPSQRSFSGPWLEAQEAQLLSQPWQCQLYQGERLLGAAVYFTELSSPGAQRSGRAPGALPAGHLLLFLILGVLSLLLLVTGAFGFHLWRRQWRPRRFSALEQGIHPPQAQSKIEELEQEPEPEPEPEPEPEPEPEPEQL
Nature of the assay: flow cytometry (bFACS) on CHO-K1 huLAG3 cells; MedianFI (PE). The protocol:
(§1) Specificity assessment F023700925 predicted selective binding to CTLA-4 and PD-1. Specificity assessment against BTLA, CD8, CTLA4, LAG3, and CD28 was performed on overexpressing cells using flow cytometry, whereas ICOS binding was evaluated in ELISA as a recombinant protein (hICOS-hFc). Expression of BTLA, CD8, PD1, CTLA4, LAG3, CD28 was assessed via directly-labelled target-specific Abs. Anti-hICOS and anti-hCTLA4/anti-hPD1 positive controls were all positive. […] No binding to BTLA, CD8, LAG3, CD28 could be observed for F023700925, whereas potent binding of F023700925 was observed on PD-1+ or CTLA-4+ CHO-K1 cells. vThe flow cytometry data generated in this experiment are in FIG. 11 (A-H).

The target of assay [6] is T6, human BTLA on CHO-K1 cells (huBTLA+ CHO-K1 cells) (human, UniProt Q7Z6A9 31-289).
T6 construct: whole, on cells
Briefly: flow cytometry (bFACS) on CHO-K1 huBTLA cells; MedianFI (PE). As for the experimental part: as §1

Assay [7] concerns the target T1, human CTLA-4 expressed on cell surface …. Briefly: flow cytometry (bFACS) on CHO-K1 huCTLA4 cells; MedianFI (PE). As for the experimental part:
as §1

Assay [8] deals with T7, human CD28 on L cells (huCD28+ L cells) (human, UniProt P10747 19-220).
T7 construct: whole, on cells
Briefly: flow cytometry (bFACS) on L cells expressing huCD28; MedianFI (PE). As for the experimental part: as §1

The target in assay [9] is T8, human CD8alpha on L cells (huCD8alpha+ L cells) (human, UniProt P01732 22-235).
T8 construct: whole, on cells
Briefly: flow cytometry (bFACS) on L cells expressing huCD8alpha; MedianFI (PE). As for the experimental part:
as §1

The target of assay [10] is T9, human PD-1 expressed on cell surface (hPD1-overexpressing CHO-K1 cells) (human, UniProt Q15116 25-288).
T9 construct: The construct expressed in the cells is not described further; also called huPD-1+ CHO-K1 cells; PD-1+ CHO-K1 cells
Nature of the assay: flow cytometry (bFACS) on CHO-K1 cells overexpressing human PD1; Nanobody detected via ALB11-binding mAb ABH0074; MeanFI (PE). The text has this:
Binding of batches of F023700925 (filled squares) and F023700912 (filled circles) and irrelavant Nb IRR00051 (filled triangles) to hPD1-overexpressing CHO-K1 cells was studied by flow cytometry. Nbs were detected via the ALB11-binding mAB ABH0074. The flow cytometry data generated in this experiment are in FIG. 9.

T3 sequence (Q28522 17-600 limits assumed): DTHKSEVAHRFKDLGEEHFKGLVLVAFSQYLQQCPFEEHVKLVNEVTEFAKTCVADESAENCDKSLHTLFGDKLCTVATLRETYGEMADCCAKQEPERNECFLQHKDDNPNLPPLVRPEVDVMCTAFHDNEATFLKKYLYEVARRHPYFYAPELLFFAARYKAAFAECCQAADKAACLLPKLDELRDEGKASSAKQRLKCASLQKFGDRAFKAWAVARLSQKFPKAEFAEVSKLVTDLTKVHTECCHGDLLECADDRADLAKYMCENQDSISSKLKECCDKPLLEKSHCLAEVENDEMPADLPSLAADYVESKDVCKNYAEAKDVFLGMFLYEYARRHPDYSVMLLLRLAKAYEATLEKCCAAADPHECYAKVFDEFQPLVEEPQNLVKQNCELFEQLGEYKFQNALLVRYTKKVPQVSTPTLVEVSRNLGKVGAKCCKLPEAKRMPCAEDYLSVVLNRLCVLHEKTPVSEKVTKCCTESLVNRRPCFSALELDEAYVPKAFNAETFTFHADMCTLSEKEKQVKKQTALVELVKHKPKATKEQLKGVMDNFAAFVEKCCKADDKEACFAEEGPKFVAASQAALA
T2 sequence (P02768 25-609 limits assumed): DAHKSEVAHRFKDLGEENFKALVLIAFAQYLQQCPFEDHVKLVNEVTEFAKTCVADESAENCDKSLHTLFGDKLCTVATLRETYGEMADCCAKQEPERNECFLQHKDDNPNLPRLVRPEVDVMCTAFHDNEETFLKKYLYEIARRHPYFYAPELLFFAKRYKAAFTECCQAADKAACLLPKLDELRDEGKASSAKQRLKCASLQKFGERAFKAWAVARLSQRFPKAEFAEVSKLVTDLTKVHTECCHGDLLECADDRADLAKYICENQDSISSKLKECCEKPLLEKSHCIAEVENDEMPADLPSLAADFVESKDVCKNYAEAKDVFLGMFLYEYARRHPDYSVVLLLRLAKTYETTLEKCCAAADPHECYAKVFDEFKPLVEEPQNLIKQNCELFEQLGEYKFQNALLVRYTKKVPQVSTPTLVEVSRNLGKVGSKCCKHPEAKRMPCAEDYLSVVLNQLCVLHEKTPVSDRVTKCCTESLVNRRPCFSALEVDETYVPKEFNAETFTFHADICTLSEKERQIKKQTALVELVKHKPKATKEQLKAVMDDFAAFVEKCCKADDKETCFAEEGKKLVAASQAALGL
T8 sequence (P01732 22-235): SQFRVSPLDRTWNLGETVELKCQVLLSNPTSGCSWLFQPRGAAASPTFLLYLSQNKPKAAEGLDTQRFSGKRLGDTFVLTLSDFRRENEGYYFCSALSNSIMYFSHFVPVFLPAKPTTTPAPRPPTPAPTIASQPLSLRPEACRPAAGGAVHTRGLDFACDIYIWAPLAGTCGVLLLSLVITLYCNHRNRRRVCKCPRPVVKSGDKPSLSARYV
T7 sequence (P10747 19-220): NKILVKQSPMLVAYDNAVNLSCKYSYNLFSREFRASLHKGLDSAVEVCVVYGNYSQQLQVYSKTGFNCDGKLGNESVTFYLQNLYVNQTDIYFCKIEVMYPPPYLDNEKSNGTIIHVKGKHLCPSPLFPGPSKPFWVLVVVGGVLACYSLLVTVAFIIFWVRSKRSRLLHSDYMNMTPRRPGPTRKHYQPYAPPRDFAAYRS
T9 sequence (Q15116 25-288 limits assumed): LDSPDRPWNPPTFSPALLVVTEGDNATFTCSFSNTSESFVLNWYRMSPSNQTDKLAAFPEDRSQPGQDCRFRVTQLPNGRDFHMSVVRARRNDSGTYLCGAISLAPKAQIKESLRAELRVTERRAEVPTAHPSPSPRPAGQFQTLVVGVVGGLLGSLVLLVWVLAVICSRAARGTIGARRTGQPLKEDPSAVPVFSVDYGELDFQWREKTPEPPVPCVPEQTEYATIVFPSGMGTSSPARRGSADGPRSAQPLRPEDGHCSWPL

B1: F023700918 (VHH)
chain: DVQLVESGGGVVQPGGSLRLSCAASGSIASIHAMGWFRQAPGKEREFVAVITWSGGITYYADSVKGRFTISRDNSKNTVYLQMNSLRPEDTALYYCAGDKHQSSWYDYWGQGTLVTVSSGGGGSGGGGSGGGGSGGGGSGGGGSGGGGSGGGGSEVQLVESGGGVVQPGGSLRLSCAASGSIASIHAMGWFRQAPGKEREFVAVITWSGGITYYADSVKGRFTISRDNSKNTVYLQMNSLRPEDTALYYCAGDKHQSSWYDYWGQGTLVTVSSGGGGSGGGGSGGGGSGGGGSGGGGSGGGGSGGGGSEVQLVESGGGVVQPGGSLRLSCAASGGTFSFYGMGWFRQAPGKEREFVADIRTSAGRTYYADSVKGRFTISRDNSKNTVYLQMNSLRPEDTALYYCAAEPSGISGWDYWGQGTLVTVSSGGGGSGGGGSGGGGSGGGGSGGGGSGGGGSGGGGS[about 120 residues left out]
For the molecule B1, the “EC50 (read off the curve)” value in assay [1] is ~2 nM.

B2: F023700912, 11F01 (E1D,L11V,A14P,Q45R,A74S,K83R,V89L,M96P,Q108L)-35GS-11F01 (L11V,A14P,Q45R,A74S,K83R,V89L,M96P,Q108L)-35GS-ALB11002-A (VHH)
chain: DVQLVESGGGVVQPGGSLRLSCAASGGTFSFYGMGWFRQAPGKEREFVADIRTSAGRTYYADSVKGRFTISRDNSKNTVYLQMNSLRPEDTALYYCAAEPSGISGWDYWGQGTLVTVSSGGGGSGGGGSGGGGSGGGGSGGGGSGGGGSGGGGSEVQLVESGGGVVQPGGSLRLSCAASGGTFSFYGMGWFRQAPGKEREFVADIRTSAGRTYYADSVKGRFTISRDNSKNTVYLQMNSLRPEDTALYYCAAEPSGISGWDYWGQGTLVTVSSGGGGSGGGGSGGGGSGGGGSGGGGSGGGGSGGGGS[about 120 residues left out]
notes: also called CTLA4 Nanobody F023700912; anti-hCTLA4 Nanobody
Consider B2, for which the Kd in assay [2] turned out to be 93 nM; in assay [3], 93 nM; in assay [4], 1500 nM. In addition, the koff came out at 0.0088 s⁻¹ in assay [2], 0.0089 s⁻¹ in assay [3] and 0.18 s⁻¹ in [4]. Further, the on-rate (kon) in assay [2] was 94000 M⁻¹ s⁻¹; in [3], 95000 M⁻¹ s⁻¹; in assay [4], 120000 M⁻¹ s⁻¹. Besides, the binding result in assay [5], in assay [6], in [8] and in assay [9] was “no binding (tested: 10^-6 M)” in each case. The “EC50 (read off the curve)” value in assay [7] is ~0.1 nM; in [1] it was ~0.2 nM.

B3: F023700925 (VHH)
chain: DVQLVESGGGVVQPGGSLRLSCAASGSIASIHAMGWFRQAPGKEREFVAVITWSGGITYYADSVKGRFTISRDNSKNTVYLQMNSLRPEDTALYYCAGDKHQSSWYDYWGQGTLVTVSSGGGGSGGGGSGGGGSGGGGSGGGGSGGGGSGGGGSEVQLVESGGGVVQPGGSLRLSCAASGSIASIHAMGWFRQAPGKEREFVAVITWSGGITYYADSVKGRFTISRDNSKNTVYLQMNSLRPEDTALYYCAGDKHQSSWYDYWGQGTLVTVSSGGGGSGGGGSGGGGSGGGGSGGGGSGGGGSGGGGSEVQLVESGGGVVQPGGSLRLSCAASGGTFSFYGMGWFRQAPGKEREFVADIRTSAGRTYYADSVKGRFTISRDNSKNTVYLQMNSLRPEDTALYYCAAEPSGISGWDYWGQGTLVTVSSGGGGSGGGGSGGGGSGGGGSGGGGSGGGGSGGGGSEVQLVESGGGVVQPGGSLRLSCAASGGTFSFYGMGWFRQAPGKEREFVADIRTSAGRTYYADSVKGRFTISRDNSKNTVYLQMNSLRPEDTALYYCAAEPSGISGWDYWGQGTLVTVSSGGGGSGGGGSGGGGSGGGGSGGGGSGGGGSGGGGS[about 120 residues left out]
notes: also called pentavalent […] Nanobody
With B3, the Kd in [2] came to 220 nM; in [3], 240 nM; in [4], 3100 nM. For the same molecule, the koff in [2] was determined as 0.0076 s⁻¹; in [3] it was 0.0081 s⁻¹; in assay [4], 0.15 s⁻¹. Moreover, the kon in assay [2] worked out at 34000 M⁻¹ s⁻¹; in [3] it was 33000 M⁻¹ s⁻¹; in assay [4], 48000 M⁻¹ s⁻¹. Moreover, the binding result in assay [5], in [6], in [8] and in assay [9] was “no binding (tested: 10^-6 M)” throughout. Further, the concentration for a half-maximal effect (EC50 (read off the curve)) in [7] was ~0.2 nM; in [10], ~1 nM; in assay [1], ~0.3 nM.

The EC50 (read off the curve) is the concentration that produces a half-maximal response. By Kd is commonly meant the concentration at which binding is half-saturated. By koff is commonly meant the rate constant with which the complex falls apart. What is called kon is the rate constant with which the complex forms.

The record behind these values is US20170137520A1 (Merck Sharp & Dohme, published 2017).
